Laboratory results as given in the supplement of paper PMC12217912.
This is one part of the list. The full chains were built here from the parent and the listed change. Inactive controls read about 0.05.

B1: TEV protease; numbered along this chain (parent)
chain: MGESLFKGPRDYNPISSSICHLTNESDGHTTSLYGIGFGPFIITNKHLFRRNNGTLVVQSLHGVFKVKDTTTLQQHLVDGRDMIIIRMPKDFPPFPQKLKFREPQREERICLVTTNFQTKSMSSMVSDTSCTFPSGDGIFWKHWIQTKDGQCGSPLVSTRDGFIVGIHSASNFTNTNNYFTSVPKNFMELLTNQEAQQWVSGWRLNADSVLWGGHKVFMVKPEEPFQPVKEATQL

Variants of: B1
Experiment: raw area under fraction-flipped curve 0-4 h after induction (AUC4h, not background-subtracted), DNA-recorder readout of cleavage of the substrate (dimensionless); higher = more cleavage of the substrate by the protease variant
Conditions: temperature: 34 °C; time window: 0-4 h after rhamnose induction
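Also: Bxb1 expression induced with 0.2% (w/v) L-rhamnose at OD600 near 0.5, cultures sampled hourly, flipped fraction per protease–substrate barcode pair counted by paired-end Illumina sequencing.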

Variant | area with substrate ENLYFCS | area with substrate ENLYFES | area with substrate ENLYFFS | area with substrate ENLYFGS | area with substrate ENLYFIS | area with substrate ENLYFNS | area with substrate ENLYFPS | area with substrate ENLYFRS | area with substrate ENLYFSS | area with substrate ENLYFTS | area with substrate ENLYFVS | area with substrate ENLYFYS | area with substrate ENLYFDS | area with substrate ENLYFKS | area with substrate ENLYFMS | area with substrate ENLYFWS | area with substrate ENLYFHS | area with substrate ENLYFLS
Q234R | 0.0634 | 0.0658 | 0.0625 | 0.0454 | 0.0598 | 0.0642 | 0.0556 | 0.0593 | 0.0673 | 0.0585 | 0.0314 | 0.0681 |  |  |  |  |  | 
P14R |  | 0.0636 | 0.072 | 0.0603 | 0.0638 | 0.046 | 0.0731 |  |  | 0.0513 | 0.0441 |  | 0.0658 | 0.0538 | 0.07 | 0.0555 |  | 
S18I |  | 0.0745 | 0.0526 | 0.0686 | 0.0443 | 0.068 |  |  | 0.0474 | 0.0368 | 0.0526 |  | 0.0486 | 0.0581 | 0.0648 | 0.0409 | 0.0523 | 
D27T |  |  | 0.0621 | 0.0553 |  | 0.0729 | 0.0772 |  | 0.0643 | 0.0548 | 0.0573 | 0.0711 | 0.0452 |  | 0.0536 | 0.0516 |  | 
G35P |  | 0.0456 | 0.0483 |  |  |  |  | 0.036 |  |  |  |  | 0.0413 |  |  |  |  | 
S60Q |  | 0.0714 | 0.0837 |  | 0.0487 |  | 0.0518 |  |  | 0.0346 |  | 0.0493 | 0.0545 |  | 0.0591 | 0.0319 | 0.062 | 0.027
Q74F |  | 0.0584 | 0.0736 |  | 0.0476 | 0.0591 | 0.0571 | 0.0606 |  | 0.0565 |  | 0.0729 | 0.0586 | 0.0602 |  | 0.0488 |  | 0.0557
R81E |  | 0.0496 | 0.0561 | 0.0552 | 0.0544 | 0.0566 | 0.0603 | 0.0567 | 0.0667 | 0.0573 |  | 0.0567 | 0.0528 |  | 0.0523 |  |  | 
T119H |  |  |  |  |  | 0.0689 | 0.0688 | 0.0555 |  | 0.0549 |  |  | 0.0634 |  | 0.0811 |  |  | 
M122H |  | 0.0794 | 0.0592 |  | 0.0571 | 0.0672 | 0.0514 | 0.0612 | 0.0485 | 0.0586 |  |  | 0.0618 |  |  | 0.0603 |  | 
S127H |  | 0.0668 | 0.0788 |  | 0.0558 | 0.123 | 0.0687 | 0.0644 | 0.0544 | 0.0562 | 0.0735 | 0.0632 | 0.0568 |  | 0.0699 | 0.0536 | 0.0742 | 
F140E |  | 0.0624 | 0.0688 | 0.0606 | 0.0564 | 0.0624 | 0.0615 | 0.0504 |  | 0.0686 | 0.0691 |  | 0.069 | 0.0636 | 0.0603 | 0.0579 | 0.0749 | 0.0607
H143L |  |  |  |  |  | 0.058 | 0.0533 |  | 0.0896 | 0.0548 |  | 0.0536 | 0.0422 | 0.0602 | 0.0583 |  | 0.0617 | 0.0666
L156V |  | 0.0666 | 0.0303 | 0.0615 | 0.0635 | 0.0648 | 0.0599 | 0.062 | 0.0688 |  |  | 0.0509 | 0.0573 | 0.0562 | 0.0717 | 0.0408 | 0.067 | 0.0584
D161H |  | 0.0613 |  | 0.0621 |  | 0.06 | 0.0589 |  |  | 0.0454 |  | 0.0338 | 0.0461 |  | 0.0484 |  |  | 
Y179T |  | 0.0582 | 0.0685 | 0.0483 | 0.0598 | 0.0405 |  |  | 0.0691 |  | 0.07 | 0.0824 | 0.0232 |  | 0.0493 |  |  | 0.0682
N186W |  | 0.0679 | 0.0643 |  | 0.0522 |  | 0.0613 | 0.0541 | 0.0655 | 0.0553 |  |  | 0.0692 |  | 0.0565 | 0.044 | 0.0567 | 
V220A |  | 0.0592 | 0.0708 | 0.0661 | 0.0582 |  | 0.0518 |  |  |  |  | 0.0618 | 0.057 | 0.0653 | 0.0669 | 0.0578 | 0.0639 | 0.0595
E223C |  | 0.0681 | 0.0792 | 0.0537 | 0.0595 |  | 0.068 | 0.0686 | 0.0653 | 0.0538 | 0.0622 | 0.0545 | 0.092 | 0.0739 | 0.0624 |  | 0.0753 | 0.0632
E3S |  | 0.108 | 0.0523 | 0.0712 | 0.054 | 0.0739 | 0.0726 |  |  |  | 0.0597 | 0.0428 |  | 0.0518 | 0.0776 | 0.055 |  | 0.0641
I42H |  | 0.056 |  |  | 0.0494 |  | 0.0511 | 0.044 | 0.0426 |  | 0.0456 |  |  | 0.0447 |  | 0.0453 |  | 
N52R |  | 0.0604 |  |  | 0.0527 | 0.0673 | 0.0572 |  | 0.0457 |  | 0.0623 | 0.0614 |  | 0.0636 | 0.0632 |  | 0.0447 | 
